Laboratory results as given in PubChem BioAssay AID2546 (National Center for Advancing Translational Sciences (NCATS), 2010).
About 11,000 (3.5%) of roughly 310,000 compounds were called active. This list was built around the results that the source calls inconclusive (neither active nor inactive); the mix of calls is not that of the screen. Calls come from the whole dose curve; as a rule, active = well fitted inhibition curve with a large enough effect; inconclusive = small, poorly fitted or top-dose-only effect, or effect the other way; inactive = flat fitted curve, though single readings scatter. No potency is given beside an inconclusive call; the fits are too rough.

Experiment: VP16 counterscreen qHTS for inhibitors of ROR gamma transcriptional activity;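 note: Gal4-VP16 expression switched on by copper sulfate through the metallothionein promoter; nearly all actives have a fitted effect of over 50% in size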
Settings: Drosophila S2 Gal4-VP16 UAS-luciferase, luminescence, 20 h; activity, negative = inhibition: at 53.6 µM (top of the series)
% is set by controls: 0 for no effect and ±100 for the full control effect; potency is the fitted concentration of half-maximal effect; tags give direction and shape of the fitted curve.

| Compound | Potency | activity, negative = inhibition |
| --- | --- | --- |
| O=C(N/N=C/c1cc(Cl)cc(Cl)c1O)c1ccncc1 | inconclusive [inhibitor, partial curve] | – |
| CCOC(=O)c1n[nH]c2ccccc12 | inactive | – |
| OCC1(Cc2ccc(F)cc2)CCCN(CCc2ccccc2)C1 (stereo not given) | inactive | – |
| CCOc1ccc(NS(=O)(=O)c2ccc(C(=O)N3CCN(c4ncccn4)CC3)cc2)cc1 | inconclusive [inhibitor, partial curve, poor fit] | – |
| Cc1onc(-c2c(F)cccc2Cl)c1C(=O)OCC(=O)c1c[nH]c2ccccc12 | inconclusive [inhibitor, single point] | – |
| O=C(CCc1ccccc1)NC(NC(=S)Nc1ccc(Br)cc1)C(Cl)(Cl)Cl (stereo not given) | active: 4.47 µM | – |
| Cc1ccc(S(=O)(=O)CC(c2ccccc2)N2CCCCC2)cc1 (stereo not given) | inactive | – |
| Cc1cccc(C)c1NC(=O)CN(C)S(=O)(=O)c1ccc(-c2ccc(=O)[nH]n2)s1 | inactive | – |
| O=C1CSC(=S)N1c1ccc(O)cc1 | inconclusive [inhibitor, single point] | – |
| O=C(NNC(=O)c1ccccc1[N+](=O)[O-])c1ccco1 | inconclusive [activator, full curve] | – |
| O=C(Nc1cc(Cl)ccc1Cl)N1CCCC1 | inactive | – |
| CN(C)CC/C=C1/c2ccccc2COc2ccccc21 | inconclusive [inhibitor, single point] | – |
| O=C(CSc1nc2ccccc2[nH]1)Nc1ccc2c(c1)CCC2 | inconclusive [inhibitor, single point] | – |
| CCN(CC)c1nc2n(c(=O)n1)CCN2CC | inactive | – |
| O=c1oc2ccccc2c(N2CCCCC2)c1[N+](=O)[O-] | inactive | – |
| CN(C)C(=S)NC(=O)C(c1ccccc1)c1ccccc1 | inconclusive [inhibitor, single point] | – |
| C=CCc1cc(Cl)ccc1OCCNCCN1CCOCC1 | inactive | – |
| COc1ccc(N2Cc3ccccc3C2)cc1Cl | inconclusive [activator, partial curve] | – |
| Cc1ccc(-c2c[nH]c(=S)n2-c2ccccc2F)cc1 | active: 5.01 µM | – |
| CCS/C(N)=N/N=C/c1cc(C)ccc1O | active: 2 µM | – |
| COc1cccc(CNC(=O)CCC2CCCN(C(=O)c3cc(C4CC4)[nH]n3)C2)c1 (stereo not given) | inconclusive [inhibitor, single point] | – |
| Cc1c(Cl)cccc1-n1c(-c2cccnc2)n[nH]c1=S | inactive | – |
| CCn1ccnc1CNC(=O)CC1C(=O)NCCN1Cc1ccc(F)cc1Cl (stereo not given) | inconclusive [inhibitor, single point] | – |
| O=C(N/N=C/c1ccc(Br)s1)c1ccccn1 | active: 3.98 µM | – |
| O=C(C1CCC(Cn2c(=S)[nH]c3ccccc3c2=O)CC1)N1CCN(c2ccccn2)CC1 (stereo not given) | inconclusive [inhibitor, single point] | – |
| COc1ccccc1NC(=O)Cc1nnc(SCC(=O)NC2=NCCS2)n1C | inactive | – |
| O=C(NS(=O)(=O)Oc1ccc(Cl)cc1)OC[C@@H]1CCCN2CCCC[C@H]12 | inconclusive [activator, single point] | – |

| Compound | Potency | activity, negative = inhibition |
| --- | --- | --- |
| CCOc1ccc(-n2c(-c3ccccc3)c[n+]3c2CCCCC3)cc1 | active: 3.55 µM | – |
| COc1ccc(C(=O)NNC(=O)CSc2nnc(C(C)C)n2C)cc1 | inconclusive [inhibitor, single point] | – |
| COc1cccc(C(=O)Nc2c(C(N)=O)oc3ccccc23)c1 | inactive | – |
| CCOc1ccccc1N1CN(Cc2ccccc2)CNC1=S | active: 11.2 µM | – |
| CCn1c(SCc2ccc(C(=O)OC)o2)nc2sc3c(c2c1=O)CCCC3 | inconclusive [inhibitor, single point] | – |
| S=c1[nH]nc(-c2ccc3ccccc3n2)n1-c1ccc(Cl)cc1 | active: 1.41 µM | – |
| O=C(NCc1cccnc1)c1ccc(-c2cccc(Cl)c2Cl)o1 | inconclusive [inhibitor, single point] | – |
| COc1ccc(N2CCN(C(=O)C(=O)c3cn(CC(=O)N4CCCCCC4)c4ccccc34)CC2)cc1 | inactive | – |
| Brc1ccc(-c2csc(NNC3=NCCCCC3)n2)cc1 | active: 14.1 µM | – |
| Clc1ccc(-c2nc3ccccc3[nH]2)cn1 | inactive | – |
| CCN(CC)S(=O)(=O)c1ccc(N/N=C(\C)c2cccnc2)nc1 | inactive | – |
| CCC1=NN=C(c2ccc(F)cc2)C(c2c[nH]c3ccccc23)N1O (stereo not given) | inconclusive [activator, single point] | – |
| CC1CCN(C(=O)CSc2n[nH]c(-c3cccs3)n2)CC1 | inconclusive [activator, partial curve, poor fit] | – |
| COC(=O)/C(=C/c1c[nH]c2ccccc12)[N+](=O)[O-] | active: 20 µM | – |
| CC(=O)N1c2ccc(S(=O)(=O)N3CCCC(C(=O)Nc4cc(C)cc(C)c4)C3)cc2CC1C (stereo not given) | inactive | – |
| CCOC(=O)c1c(N)sc2c(OCC)c(Br)ccc12 | inconclusive [inhibitor, single point] | – |
| CCOC(=O)c1ccccc1NC(=O)c1cn(CC)c2nc(C)ccc2c1=O | inconclusive [inhibitor, single point] | – |
| C=CCOc1c(Cl)cc(CNn2cn[nH]c2=S)cc1OC | inconclusive [inhibitor, partial curve] | – |
| COc1cccc(CNC(=S)Nc2cc(C)cc(C)c2)c1 | – | inactive: -16.3% [at 10 µM] |
| Cc1cccc2nc(CSc3nnc4ccccn34)cn12 | inconclusive [inhibitor, full curve] | – |
| CC(=O)N(C)c1ccc(NC(=O)/C=C/c2ccccc2Cl)cc1 | active: 17.8 µM | – |
| COc1ccc(C2OC3C(CO)OC(n4cnc5c(=O)[nH]c(N)nc54)C3O2)cc1 (stereo not given) | inactive | – |
| CCc1ccccc1N1CC(C(=O)Nc2nccs2)CC1=O (stereo not given) | inactive | – |
| Cc1cc(C(=O)Nc2sc3c(c2C#N)CCCCC3)cs1 | inconclusive [inhibitor, single point] | – |
| CCSc1nnc(-c2cc3c(s2)-c2ccccc2CC3)o1 | active: 2.51 µM | – |
| O=C(Nc1cccc(C(=O)N2CCCc3ccccc32)c1)c1ccccc1 | inconclusive [inhibitor, single point] | – |
| Nc1c(S(=O)(=O)c2ccccc2)cnc2c(-c3ccc(F)cc3)cnn12 | active: 10 µM | – |

| Compound | Potency | activity, negative = inhibition |
| --- | --- | --- |
| CCc1ccc(CCC(=O)Nc2ccc(C(C)=O)cc2)o1 | inconclusive [activator, full curve, poor fit] | – |
| CCC(=O)N1c2ccc(S(=O)(=O)CCC(=O)NCCC3=CCCCC3)cc2CC1C (stereo not given) | inconclusive [inhibitor, single point] | – |
| CSc1nc(C)cc(OCC(=O)N/N=C/c2ccccc2O)n1 | active: 0.708 µM | – |
| CCCC[C@]12Cc3cc(OC)c(OC)cc3C(O1)C1=C(CC3(CCCCC3)OC1=O)O2 | – | inactive: 7.46% [at 10 µM] |
| Cc1ccc(CNC(=O)CS(=O)(=O)CC(=O)O)cc1 | inactive | – |
| O=C(NCc1ccccc1)C1=C[C@@H](c2ccc(Br)cc2)C[C@@H](OCCCCO)O1 | inactive | – |
| COc1ccc(-n2ncc(Cl)c(Cl)c2=O)cc1 | inconclusive [inhibitor, single point] | – |
| CS(=O)(=O)c1cccc(C(=O)Nc2ccc(-c3nc4ccccc4[nH]3)cc2)c1 | inconclusive [inhibitor, single point] | – |
| CCN(c1ccccc1)S(=O)(=O)c1ccc(C(=O)Nc2nnc(CSC)o2)cc1 | active: 0.891 µM | – |
| CCCCNC(=O)c1cc(-c2ccc(F)cc2)on1 | inactive | – |
| COc1ccccc1C(=O)O/N=C(\N)c1ccccn1 | inconclusive [inhibitor, single point] | – |
| C/C(CC(=O)Nc1ccc(C)c(Cl)c1)=N\NC(=O)Cc1cnc(N)s1 | inconclusive [activator, full curve, poor fit] | – |
| CCOc1ccc(S(=O)(=O)N/N=C(\C)c2ccc(Cl)c(Cl)c2Cl)cc1 | inconclusive [inhibitor, single point] | – |
| Cc1cccc2c1-c1sc(C(=O)Nc3ccccc3N3CCN(C)CC3)cc1CO2 | inactive | – |
| CCOC(=O)C1(CCc2ccccc2)CCN(C(=O)C2CCCO2)CC1 (stereo not given) | inconclusive [activator, single point] | – |
| O=C(Nc1ccccc1F)c1cc(Cl)sc1Cl | inconclusive [activator, partial curve] | – |
| O=C1Nc2cc(C(=O)NCCN3CCCCCC3)ccc2S/C1=C\c1ccccc1 | inconclusive [inhibitor, single point] | – |
| COc1cccc(C2/C(=C(\O)c3ccc4c(c3)OCO4)C(=O)C(=O)N2CCN(C)C)c1OC (stereo not given) | inactive | – |
| Cc1ccc(N2C(=O)CC(Nc3cccc4ccccc34)C2=O)cc1 (stereo not given) | inconclusive [inhibitor, single point] | – |
| CCCCC[C@H](O)/C=C/[C@@H]1[C@H]2C/C(=C/CCCC(=O)O)O[C@H]2C[C@H]1O | inactive | – |
| O=c1[nH]c2ccccc2c2nc(-c3cccc(S(=O)(=O)N4CCCC4)c3)nn12 | inactive | – |
| N#Cc1cn(CC(=O)O)c2ccccc12 | inactive | – |
| Cc1cc(C)c2c(N)c(C(=O)C(C)(C)C)sc2n1 | inactive | – |
| Cn1cccc1/C=N/NC(=O)c1cc2ccccc2cc1O | active: 2 µM | – |
| CCC(=O)NC(c1cccs1)c1cc([N+](=O)[O-])c2cccnc2c1O (stereo not given) | active: 5.01 µM | – |
| COc1ccc2c(c1)C(=O)[C@H](O)[C@@H](c1ccc(OC)c(Br)c1)O2 | active: 12.6 µM | – |
